Measurements: US20240360122A1, “POLYMORPHIC FORMS AND SALTS OF A GLP-1R AGONIST” (Terns (Suzhou) Biotechnology Co., Ltd., priority 2023, published 2024)
≈ marks a conversion by molar mass, not a printed value. Structures can show the parent of a compound that is named as a salt. The source gives many values for each of these; only a part stands here.

Legend:
Format in all cases: physicochemical
[1] = Solubility studies of Compound 1 meglumine salt in DMSO / ethyl acetate; conditions: dimethylsulfoxide (DMSO) at 50° C.
[2] = pH solubility in pH 1.0-8.0 buffers at RT; conditions: LOQ = 0.0001 mg/mL
Description: The procedures were listed below:
1. […] Add 2 ml, of the corresponding medium.
2. Mixed well and stirred at RT (1000 rpm). Check the pH and adjust it back to the target pH after dosing.
3. Sampled after 2 hours and 24 hours. The supernatant was isolated by centrifugation (12000 rpm, 5 min) and filtration (0.22 μm, PTFE) for pH and HPLC test.

[3] = Kinetic solubility in water and bio-relevant media (SGF, FaSSIF, FeSSIF) at 37° C.; conditions: calculated by freeform
Description: Add 4 mL of medium (H2O, SGF, FaSSIF and FeSSIF). • Rolled at 37° C. (˜25 rpm). Sampling at 1, 2, 4 and 24 hrs. • At each time-point, sampled 0.8 mL of solution or suspension into a centrifuge tube prior to centrifugation (12000 rpm, 37° C., 5 min) and filtration through 0.45 μm PTFE membrane. • Tested pH and concentration for the filtrate. Analyze residual solids by XRPD.
0.1 g of NaCl and 0.05 g of Triton X-100 were weighed into a 50-mL volumetric flask. Purified water was added to dissolve the solid. 67.5 μL HCl (38%, 12M) was added after the solid was dissolved completely. pH was then adjusted to 1.8 using HCl (1 M) or NaOH (1 M). Purified water was added to the volume.
(§1) 0.17 g of anhydrous NaH2PO4, 0.021 g of NaOH and 0.31 g of NaCl were weighed into a 50-mL volumetric flask. ˜48 mL purified water was added to dissolve the solid. pH was adjusted to 6.5 using 1M HCl or 1M NaOH. Purified water was then added to the volume. 0.11 g of SIF powder was added into the volumetric flask.
as §1, with “0.41 mL” for “0.17 g”, “acetic acid, 0.20” for “anhydrous NaH2PO4, 0.021”, “0.59” for “0.31”, “5.0” for “6.5”, “0.56” for “0.11”

SMILES: N#Cc1ccc(COc2cccc(C3CCN(Cc4nc5ccc(C(=O)O)cc5n4Cc4cncs4)CC3)n2)c(F)c1 [Compound 1 meglumine salt]
- solubility in DMSO [1]: high solubility

SMILES: N#Cc1ccc(COc2cccc(C3CCN(Cc4nc5ccc(C(=O)O)cc5n4Cc4cncs4)CC3)n2)c(F)c1 [Freeform Type C]
- Solubility ([2]; pH 1.0 buffer, 2 Hours): 180 µg/mL (≈ 309 µM)
- Solubility ([2]; pH 2.0 buffer, 2 Hours): 34 µg/mL (≈ 58.4 µM)
- Solubility ([2]; pH 3.5 buffer, 2 Hours): 16 µg/mL (≈ 27.5 µM)
- Solubility ([2]; pH 3.5 buffer, 24 Hours): 0.3 µg/mL (≈ 0.515 µM)
- Solubility ([2]; pH 4.5 buffer, 24 Hours): <LOQ
- Solubility ([2]; pH 5.5 buffer, 2 Hours): <LOQ
- Solubility ([2]; pH 5.5 buffer, 24 Hours): <LOQ
- Solubility ([2]; pH 6.8 buffer, 2 Hours): 0.1 µg/mL (≈ 0.172 µM)
- Solubility ([2]; pH 6.8 buffer, 24 Hours): 0.3 µg/mL (≈ 0.515 µM)
- Solubility ([2]; pH 8.0 buffer, 2 Hours): 6.6 µg/mL (≈ 11.3 µM)
- Solubility ([2]; pH 8.0 buffer, 24 Hours): 6.7 µg/mL (≈ 11.5 µM)
- S: Solubility ([3]; FeSSIF, 1 hr): 6 µg/mL
- S: Solubility ([3]; FeSSIF, 2 hrs): 6 µg/mL
- S: Solubility ([3]; FeSSIF, 4 hrs): 6 µg/mL

SMILES: N#Cc1ccc(COc2cccc(C3CCN(Cc4nc5ccc(C(=O)O)cc5n4Cc4cncs4)CC3)n2)c(F)c1 [Fumarate Type A]
- S: Solubility ([3]; FaSSIF, 1 hr): 4 µg/mL
- S: Solubility ([3]; FaSSIF, 2 hrs): 4 µg/mL
- S: Solubility ([3]; FaSSIF, 4 hrs): 7 µg/mL
- S: Solubility ([3]; FaSSIF, 24 hrs): 3 µg/mL
- S: Solubility ([3]; FeSSIF, 1 hr): 10 µg/mL
- S: Solubility ([3]; FeSSIF, 2 hrs): 9 µg/mL
- S: Solubility ([3]; FeSSIF, 4 hrs): 9 µg/mL
- S: Solubility ([3]; FeSSIF, 24 hrs): 20 µg/mL
- S: Solubility ([3]; H2O, 1 hr): 3 µg/mL
- S: Solubility ([3]; H2O, 2 hrs): 3 µg/mL
- S: Solubility ([3]; H2O, 4 hrs): 2 µg/mL
- S: Solubility ([3]; H2O, 24 hrs): 3 µg/mL
- S: Solubility ([3]; SGF, 1 hr): 46 µg/mL
- S: Solubility ([3]; SGF, 2 hrs): 44 µg/mL
- S: Solubility ([3]; SGF, 4 hrs): 43 µg/mL
- S: Solubility ([3]; SGF, 24 hrs): 48 µg/mL

SMILES: N#Cc1ccc(COc2cccc(C3CCN(Cc4nc5ccc(C(=O)O)cc5n4Cc4cncs4)CC3)n2)c(F)c1 [Meglumine salt Type A]
- Solubility ([2]; pH 1.0 buffer, 2 Hours): 1300 µg/mL
- Solubility ([2]; pH 1.0 buffer, 24 Hours): 150 µg/mL
- Solubility ([2]; pH 2.0 buffer, 2 Hours): 200 µg/mL
- Solubility ([2]; pH 2.0 buffer, 24 Hours): 16 µg/mL
- Solubility ([2]; pH 3.5 buffer, 24 Hours): 7.5 µg/mL
- Solubility ([2]; pH 5.5 buffer, 24 Hours): <LOQ*
- Solubility ([2]; pH 6.8 buffer, 2 Hours): 95 µg/mL
- Solubility ([2]; pH 6.8 buffer, 24 Hours): 190 µg/mL
- Solubility ([2]; pH 8.0 buffer, 2 Hours): 640 µg/mL
- Solubility ([2]; pH 8.0 buffer, 24 Hours): 1300 µg/mL
